Out of some 310,000 compounds screened, about 2,200 (0.71%) showed an effect of 50% or more. Effects have a minus sign here. The list shows a part of the results.
Target: human ether-à-go-go-related gene (hERG) potassium channel (human, UniProt Q12809)
Assay: primary screen, population patch clamp on CHO cells stably expressing hERG

Chain of human ether-à-go-go-related gene (hERG) potassium channel (Q12809 whole entry, looked up): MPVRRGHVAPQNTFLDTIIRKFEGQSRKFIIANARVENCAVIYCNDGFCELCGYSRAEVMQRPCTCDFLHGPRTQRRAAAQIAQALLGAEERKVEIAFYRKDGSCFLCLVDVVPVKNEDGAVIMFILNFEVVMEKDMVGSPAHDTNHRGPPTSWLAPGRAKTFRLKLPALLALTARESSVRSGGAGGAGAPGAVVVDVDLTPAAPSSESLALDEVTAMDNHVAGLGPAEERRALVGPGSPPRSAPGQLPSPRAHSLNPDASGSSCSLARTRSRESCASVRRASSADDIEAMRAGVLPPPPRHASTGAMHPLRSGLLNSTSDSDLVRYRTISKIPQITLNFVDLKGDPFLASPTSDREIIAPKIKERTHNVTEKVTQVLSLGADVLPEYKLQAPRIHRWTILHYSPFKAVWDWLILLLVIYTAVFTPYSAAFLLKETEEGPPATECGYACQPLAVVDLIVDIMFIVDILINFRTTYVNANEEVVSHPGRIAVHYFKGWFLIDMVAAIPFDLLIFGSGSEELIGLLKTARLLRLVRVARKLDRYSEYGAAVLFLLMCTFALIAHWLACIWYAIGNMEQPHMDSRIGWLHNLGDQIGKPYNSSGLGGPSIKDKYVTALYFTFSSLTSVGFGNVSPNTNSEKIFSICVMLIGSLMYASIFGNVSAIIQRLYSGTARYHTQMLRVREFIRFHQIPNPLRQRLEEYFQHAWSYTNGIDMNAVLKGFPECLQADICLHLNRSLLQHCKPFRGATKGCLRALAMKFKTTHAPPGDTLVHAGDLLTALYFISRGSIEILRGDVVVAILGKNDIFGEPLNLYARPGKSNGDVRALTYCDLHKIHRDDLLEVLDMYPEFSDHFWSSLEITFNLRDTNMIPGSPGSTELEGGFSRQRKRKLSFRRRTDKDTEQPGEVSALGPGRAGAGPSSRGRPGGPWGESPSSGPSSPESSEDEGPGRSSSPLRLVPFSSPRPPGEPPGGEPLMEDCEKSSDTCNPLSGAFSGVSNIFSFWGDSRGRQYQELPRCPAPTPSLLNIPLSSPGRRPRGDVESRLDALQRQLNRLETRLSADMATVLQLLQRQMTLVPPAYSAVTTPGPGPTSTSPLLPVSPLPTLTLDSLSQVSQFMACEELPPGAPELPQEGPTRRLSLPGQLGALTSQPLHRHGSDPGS

| Compound | hERG current change (%, negative = inhibition) at 1uM |
| --- | --- |
| CC(C)c1ccc(NC(=O)COC(=O)/C=C/c2cccc(Br)c2)cc1 | 0.318% |
| Cc1csc(CNC(=O)C2CCC(=O)N(CCc3cccc(F)c3)C2)n1 (stereo not drawn) | 9.09% |
| COc1ccc(-c2cnn3c4c(c(C)nc23)CCN4C2CCCC2)cc1OC | 10.8% |
| O=S(=O)(NCC1CCCO1)c1ccc(Oc2ccccc2)cc1 (stereo not drawn) | 8.02% |
| C=CCSc1nccc(=O)[nH]1 | 13.2% |
| CSCCC(NC(=O)c1ccc(Cl)cc1)C(=O)OCC(=O)Nc1cc(Cl)ccc1C#N (stereo not drawn) | 12.9% |
| C=CCN(CC=C)C(=O)c1ccc(OC2CCN(Cc3ccccn3)CC2)cc1 | 6.2% |
| COc1ccc(NC(=O)c2cc(CC(C)C)on2)cc1OC | 6.43% |
| Cc1cccc(OP(N)(=O)Oc2cccc(C)c2)c1 | 10.6% |
| Cc1ccc(C)c(OC(=O)c2cncc(Br)c2)c1 | 8.32% |
| O=C(c1ccco1)N1CCN(C(=O)c2ccc(COc3ccc(F)cc3)o2)CC1 | -22.4% |
| C#Cc1ccc(CN2CCC(Oc3ccc(C(=O)NCc4ccccn4)cc3)CC2)cc1 | 6.41% |
| Cc1cc(C(=O)Nc2cccc3ccccc23)n(-c2ccccc2)n1 | 9.69% |
| NCCCC[C@H]1CNC(=S)N1CC1(c2ccccc2)CC1 | 14.4% |
| CCOc1ccc(/C=N/OCC(=O)Nc2cc(C)on2)cc1 | 13.9% |
| Cc1cccc(NC(=O)c2nc[nH]c2C(=O)N[C@@H](Cc2ccccc2)C(=O)OCc2ccccc2)c1 | 14.5% |
| CN(C(=O)c1cc([N+](=O)[O-])ccc1N1CCCC1)C1CCCCC1 | 9.64% |
| O=S(=O)(c1ccc(Cl)cc1)N1CCCC1c1nc(-c2cccc(Cl)c2)no1 (stereo not drawn) | 12.7% |
| Cc1ccc(NC(=O)CSc2nnc(C)n2CC2CCCO2)cc1 (stereo not drawn) | 7.8% |

| Compound | hERG current change (%, negative = inhibition) at 1uM |
| --- | --- |
| O=C(CSc1nc(C2CC2)nc2ccccc12)N1CCCCC1 | 5.07% |
| Cc1cc(C)n2nc(SCC(=O)Nc3ccc(O)cc3)nc2n1 | 7.41% |
| COc1cccc(NC(=O)CSc2nnc(CNC(=O)c3ccccc3)n2C)c1 | -3.55% |
| CCCn1c2c(c(O)c(C(=O)Nc3ncccc3O)c1=O)CCCC2 | 12.5% |
| CC(=O)c1ccc(S(=O)(=O)NCCCC(=O)NCCc2ccccn2)cc1 | 9.55% |
| CSCCC(N=Cc1c(O)n(-c2ccc(Br)cc2)c(=O)[nH]c1=O)C(=O)OC(C)(C)C (stereo not drawn) | 11.2% |
| O=S(=O)(Nc1ccccc1N1CCCCC1)c1ccc(F)cc1F | 15.6% |
| N#Cc1nc(-c2ccco2)oc1N1CCN(c2cccc(Cl)c2)CC1 | 5.18% |
| O=C(CNC(=O)c1ccco1)OCC(=O)c1cccc2ccccc12 | 7.44% |
| CCN1CCN(c2cc(C)c3cc(NC(=O)CCC(=O)N4CCN(c5ccccc5)CC4)ccc3n2)CC1 | 19.3% |
| CCNC(=O)Nc1ccc(OC)cc1OC | 1.64% |
| COc1cc(/C=N/Nc2ccccc2[N+](=O)[O-])ccc1OC(=O)c1ccccc1F | -0.0539% |
| Cc1cc(C)n(CC(=O)N2N=C(C(F)F)CC2(O)C(F)F)n1 (stereo not drawn) | 13.7% |
| O=C(NCc1ccccc1)NC1CC2CCC(C1)N2Cc1ccco1 (stereo not drawn) | 1.87% |
| COc1ccc(C(=O)Nc2c(C)csc2C(=O)O)cc1 | 6.59% |
| O=C(CSc1ccccc1)NC1CCCCCCC1 | 10.4% |
| Cc1ccc(N2CCN(C(=S)Nc3ccccc3)CC2)cc1 | 15.8% |
| CCN(CC)CCNC(=O)c1cn(-c2ccccc2)nc1-c1cccs1.Cl | -32.5% |
| COc1ccc(CCN(C)C(=O)CSc2nc3ncc(Cl)cc3[nH]2)cc1OC | 6.89% |

| Compound | hERG current change (%, negative = inhibition) at 1uM |
| --- | --- |
| CC(=O)Nc1cccc(OCCCNC(=O)c2ccc(C(C)(C)C)cc2)c1 | 12.2% |
| Cc1cccnc1NC(=S)Nc1ccc(Br)cc1Cl | 10.4% |
| O=C1C2C(c3ccccc3)C=CC(c3ccccc3)C2C(=O)N1c1ccccn1 (stereo not drawn) | 11.1% |
| O=C(NC1(C(=O)NC2CCCCC2)CCCCC1)c1ccc2c(c1)OCO2 | 12.8% |
| Cc1cc2nc(-c3ccc4c(c3)CCC4)ccn2n1 | 7.6% |
| COc1cccc(CNC(=O)CCC(=O)n2ncc3cc(C)ccc32)c1OC | 9.76% |
| CC(=O)c1cccc(NC(=O)c2ccc(C)c(S(=O)(=O)N3CCOCC3)c2)c1 | 9.19% |
| O=C(c1cccc([N+](=O)[O-])c1)N1CCN(c2cccc(Cl)c2)CC1 | 5.93% |
| N#CCCn1cc(C(=O)N2CCCCC2)c(-c2ccc([N+](=O)[O-])cc2)n1 | 0.956% |
| COc1ccc(S(=O)(=O)N2Cc3ccccc3CC2C(=O)Nc2ccc(O)cc2)cc1OC (stereo not drawn) | -0.93% |
| Cc1ccccc1CSCCNC(=O)c1ccc(Cl)c(S(=O)(=O)N2CCOCC2)c1 | -3.01% |
| CC1(C)C2CCC1(CS(=O)(=O)NCCc1c[nH]c3ccccc13)C(=O)C2 (stereo not drawn) | -0.152% |
| CC(Sc1nnc(CN2CCCC2)n1Cc1ccccc1)C(=O)Nc1ccc(F)cc1 (stereo not drawn) | -9.37% |
| Cn1nccc1C(=O)Nc1ccn(C23CC4CC(CC(C4)C2)C3)n1 | -5.75% |
| CCN(CC(=O)Nc1cc(S(=O)(=O)N2CCOCC2)ccc1C)Cc1ccccc1 | 6.88% |
| Cn1c(NCc2ccccc2Cl)nc2ccccc21 | 2.08% |
| COc1ccc(N2Cc3ccccc3C2=O)cc1 | 15.4% |
| Cc1ccc(C)c(S(=O)(=O)Nc2nc3ccc(S(N)(=O)=O)cc3s2)c1 | 15.7% |
| CC(=O)Nc1cc(C(=O)N2CCN(C)CC2)ccc1Sc1ccc(C)cc1 | -0.653% |

From paper PMC4336329 (PLoS ONE, 2015)
